Key:
[1] = molecular target: His-tagged SARS-CoV-2 RBD (SARS-CoV-2)
[2] = molecular target: SARS-CoV-2 spike (S) glycoprotein on live SARS-CoV-2 virus (SARS-CoV-2); experiment: cell-based or functional assay

Row | Binder | Kd [1] | in vitro virus neutralization EC50 [2]
1 | huACE2-Fc fusion construct S2583 (ACE2-hFc1) (Fc fusion) not shown | 3.2 nM | 0.9 µg/mL
2 | huACE2-Fc fusion construct S2589 (ACE2-GS2-hFc3) (Fc fusion) not shown | 0.7 nM | –
3 | huACE2-Fc fusion construct S2585 (ACE2-GS2-hFc1) (Fc fusion) not shown | 0.8 nM | 0.6 µg/mL

Reference: US20220002699A1 (PLANET BIOTECHNOLOGY, published 2022)
